According to PubChem BioAssay AID488969 (Vanderbilt High Throughput Screening Facility, 2010):
In all, about 110,000 compounds were measured (“z-score”: median about -0.1, highest 2% from about 2 on). The list shows a part of the results.

What follows are compounds tested against Metabotropic glutamate receptor 8 (Rattus norvegicus) (UniProt P70579) (assay: mGluR8 Gi/Go-coupled signaling modulation – cell-based, rat, thallium flux, HTS, primary screen (AID 488969)). Conditions: HEK293 rat mGluR8, GIRK (G protein-gated inwardly rectifying potassium channel) thallium flux, FluoZin2; at 10 µM; stronger effect = higher value.
Sequence of UniProt P70579 (P70579 whole entry, looked up): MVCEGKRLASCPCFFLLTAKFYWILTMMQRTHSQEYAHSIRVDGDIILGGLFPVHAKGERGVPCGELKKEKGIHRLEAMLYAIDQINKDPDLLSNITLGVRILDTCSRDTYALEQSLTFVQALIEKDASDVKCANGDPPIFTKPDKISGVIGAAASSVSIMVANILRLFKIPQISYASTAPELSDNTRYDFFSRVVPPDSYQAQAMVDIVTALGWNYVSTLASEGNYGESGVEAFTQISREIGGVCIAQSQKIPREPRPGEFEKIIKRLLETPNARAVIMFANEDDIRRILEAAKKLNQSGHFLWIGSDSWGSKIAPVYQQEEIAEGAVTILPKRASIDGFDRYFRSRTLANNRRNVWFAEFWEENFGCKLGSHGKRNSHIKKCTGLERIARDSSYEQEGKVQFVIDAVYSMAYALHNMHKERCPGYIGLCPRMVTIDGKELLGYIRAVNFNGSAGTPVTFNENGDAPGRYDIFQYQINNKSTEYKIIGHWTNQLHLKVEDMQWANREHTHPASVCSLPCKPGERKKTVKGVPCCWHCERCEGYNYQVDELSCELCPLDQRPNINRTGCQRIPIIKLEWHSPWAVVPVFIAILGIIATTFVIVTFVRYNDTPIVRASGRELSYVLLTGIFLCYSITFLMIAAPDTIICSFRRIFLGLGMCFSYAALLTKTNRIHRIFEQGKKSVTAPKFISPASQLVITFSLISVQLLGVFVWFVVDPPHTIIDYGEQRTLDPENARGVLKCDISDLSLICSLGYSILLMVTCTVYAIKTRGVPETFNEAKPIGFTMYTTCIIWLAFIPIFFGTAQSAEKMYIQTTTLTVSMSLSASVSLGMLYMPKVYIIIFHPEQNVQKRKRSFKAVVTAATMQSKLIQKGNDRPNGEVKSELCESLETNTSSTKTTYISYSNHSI

Row | SMILES | z-score
1 | CNCC1(c2ccccc2)CCCC1 | 0.566
2 | NC12CN3CN(CN(C3)C1)C2 (tested in a mixture with another compound) | -0.55
3 | O=C(c1cc2c(s1)CCCC2)N1CCC2(CC1)OCCO2 | -0.173
4 | CC(C)CNC(=O)c1c(N)n(Cc2ccco2)c2nc3ccccc3nc12 | 0.259
5 | COc1ccccc1Sc1ccccc1CC(C)N (configuration not stated) | 1.35
6 | O=P(N1CCCCC1)(N1CCCCC1)C(Cl)(Cl)Cl | -0.128
7 | Cc1cccc(C(=O)Nc2ccc(Cl)cc2C(=O)c2ccccc2)c1 | -0.24
8 | CCOC(=O)[C@@]1(C#N)C(c2ccc(Cl)c(Cl)c2)[C@H](C(N)=O)N2C=C(C(C)=O)C=C[C@H]21 (some centres not stated) | 0.0752
9 | CCOC(=O)c1sc(/N=C/c2c(O)n(-c3ccccc3)c(=O)[nH]c2=O)c(C#N)c1C | -0.66
10 | CSC1=NP(=S)(SC)N2CCCC2=C1C#N (configuration not stated) | -0.415
11 | CCCc1nc2ccccc2c(=O)n1-c1ccc(OC)cc1 | -0.69
12 | O=C1c2ccccc2C(=O)N1Cc1nc2ccccc2c(=O)n1-c1cccnc1 | 0.42
13 | O=C(C1CC(=O)N(C2CCCC2)C1)N1CCC2(CC1)OCCO2 (configuration not stated) | 0.129
14 | O=c1cc(C(F)(F)F)c2cc3c4c(c2o1)CCCN4CCC3 | -0.793
15 | CON(C)C(=O)Nc1ccc(Cl)cc1 | 0.516
16 | Fc1ccc(CCNCc2ccccc2Cl)cc1 | 0.251
17 | CCn1c(O)c(/C=N/N2CCOCC2)c(=O)n(CC)c1=S | -0.174
18 | CC1CCCC(C)N1/N=C/c1c[nH]c2ccc(Br)cc12 (configuration not stated) | 0.436
19 | CC(C)c1cccc(C(C)C)c1OCCn1ccnc1 | 2.23

Row | SMILES | z-score
20 | CC1CCCN(CC(=O)N2CCCc3ccccc32)C1 (configuration not stated) | 0.118
21 | CN(C)CCOC(=O)c1cn(Cc2ccccc2)c2ccccc12 | 2.01
22 | N=c1c[n+](CC23CC4CC(CC(C4)C2)C3)[n-]o1 | 2.09
23 | C=CCN1C(=O)/C(=C/c2cccs2)C(=O)NC1=S | 0.723
24 | Cc1ccc(S(=O)(=O)Cc2ccc(C(=O)N3CCC4(CC3)OCCO4)o2)cc1 | 0.786
25 | CCC(=NCCC(c1ccccc1)c1ccccc1)c1c(O)n(C)c(=O)n(C)c1=O | -0.433
26 | COc1cc(/C=C2\C(=O)NC(=O)N(CCc3ccc(F)cc3)C2=O)ccc1O | -0.256
27 | CCCCP(=O)(O)c1ccccc1 | -0.197
28 | COc1ccc(CCC(C)NCCc2ccccc2)cc1 (configuration not stated) | 0.71
29 | CN(C)CP(=O)(O)CN(C)C=O | -0.0986
30 | N/C(=N\N=C/c1ccc(-c2ccc(O)c(C(=O)O)c2)o1)N[N+](=O)[O-] | 0.363
31 | Cc1cccc2c1N(N=O)CCC2 | -0.139
32 | CSCCC(N=Cc1c(O)n(-c2ccc(Cl)cc2)c(=O)[nH]c1=O)C(=O)OC(C)(C)C (configuration not stated) | -1.03
33 | O=C(C1CCC(=O)N1Cc1ccccc1Cl)N1CCC2(CC1)OCCO2 (configuration not stated) | -0.0696
34 | COP(=O)(OC)C(NC(=O)C(C)(C)C)=C(Cl)Cl | -0.459
35 | O=C(CSc1ccccc1)N1CCC2(CC1)OCCO2 | 1.36
36 | CCSc1cc(C2C(C#N)=C(N)Oc3n[nH]c(C)c32)c(C)o1 (configuration not stated) | -2.21
37 | CCC(=NCCC(c1ccccc1)c1ccccc1)c1c(O)[nH]c(=O)[nH]c1=O | -1.43
38 | CC(NC1CCCCC1)C(O)C12CC3CC(CC(C3)C1)C2 (configuration not stated) | 2.39

Row | SMILES | z-score
39 | CN1CCc2nc(N)c(C#N)c(-c3ccccc3)c2C1 | 0.0811
40 | CCC1(c2ccccc2)C(=O)N(C)C(=O)N(C)C1=O | -0.323
41 | CN(C)CC1CSCCC1(O)c1ccc(Cl)cc1 (configuration not stated) | -0.0309
42 | CN1CCN(C(=O)COc2ccc(C(C)(C)C)cc2Br)CC1 | -0.545
43 | Brc1ccc2c(c1)C(OC1CN3CCC1CC3)c1ccccc1CS2 (configuration not stated) | 1.72
44 | COc1cccc(NC(=O)N2CCC3(CC2)OCCO3)c1 | -0.0285
45 | O=C(Cc1ccccc1)OCCNC(=O)c1cccnc1 | -0.0445
46 | COc1ccc(C2SCC(=O)Nc3c2c(C)nn3-c2ccccc2)cc1OC (configuration not stated) | 0.0147
47 | OC1(c2cccnc2)CC2CCC(C1)N2Cc1nnnn1Cc1ccccc1 (configuration not stated) | -0.142
48 | C=CCn1c(O)c(C(C)=NCCN2CCOCC2)c(=O)[nH]c1=O | 1.5
49 | CC(C)c1ccc(N2C(=O)NC(=O)/C(=C/C=C/c3ccco3)C2=O)cc1 | 0.083
50 | CN(C(=O)c1ccco1)C1(c2ccccc2Cl)CCCCC1=O (configuration not stated) | 0.733
51 | CCN1CCN(C(=O)COc2cc(=O)n(CC)c3ccccc23)CC1 | -0.283
52 | Cc1ccc(-n2c(O)c(C=Nc3ccc(S(=O)(=O)N(C)C)cc3)c(=O)[nH]c2=O)cc1 | -0.2
53 | CCN1CCN(Cc2cc(C(C)(C)C)c(O)c(C(C)(C)C)c2)CC1 | 0.295
54 | CCCS(=O)(=O)N1CCCC(C(=O)N2CCC3(CC2)OCCO3)C1 (configuration not stated) | 0.0755
55 | O=C(C1CC(c2ccccc2O)=NO1)N1CCC2(CC1)OCCO2 (configuration not stated) | -0.0752
56 | CCn1ncc(/C=C2/CC3C4CC=C5CC(O)CCC5(C)C4CCC3(C)C2=O)c1C (configuration not stated) | 0.507
57 | Cc1csc(=N)n1Cc1ccccc1 | -0.24
